This is one part of the list.
The sequences below were run on PfHDP1 homeodomain (GST-tagged) (assay: gcPBM binding intensity (ln(normalized median fluorescence intensity)); higher = stronger DNA binding).
Method in brief: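 Binding of GST-tagged P. falciparum DNA-binding domains, expressed in E. coli and used at about 25 μg on average, was carried out for 1 h in 1× PBS containing 1% milk, 0.2 mg/ml BSA, 0.5% salmon testes DNA and 0.03% Triton X-100. The target was an Agilent 4 × 180k array of primer-extended double-stranded 36-bp intergenic genomic probes plus negative controls, read with Alexa488 anti-GST antibody at 488 nm. Binding intensity is the highest Masliner-normalised natural-log median intensity across replicate spots of either probe orientation.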

Sequence | gcPBM binding intensity (ln)
TATATATATATATATGTGCACTGGACATATTTTTAT [GTGCAC_site9721] | 9.84
TTTTTATTTAATAGTTGTACATTGAAAAATATGTAT [XGTACX_site3025] | 6.23
AATACCCAAGGACACACACACACATATATATATATA [CACACA_site8345] | 9.32
ATAATATAAATACAAACACACAATTGTGTCCACATT [CACACA_site6920] | 6.79
ATTTTTATTTTTATTTGTACTTATATATTCTTAAGC [XGTACX_site4122] | 6.7
TTTTTAAATATAAACAAAAAAAAAAAATATATCAAT [XGTACX_negctrl_site328] | 6.33
ATCATATTTATGTTGGTGCATTATGCATGGATTTTA [GTGCAC_site9795] | 10.8
TTACAATTAATAAAGTGTACTTAACTATTATATATA [XGTACX_site481] | 6.11
TTTTAAAGTTGTGAGCTTCATTTTTATTTATATGTA [CACACA_negctrl_site1505] | 6.21
ATATATATATATGTCTGTACATAAAAAATAATAAAT [XGTACX_site3122] | 9.03
TTGATCTATAATAATACACACTTACATAATTAATTA [CACACA_site6273] | 6.59
AAAAATAGACAAAAGAGTACAAGAAAAAAAGGGTTC [XGTACX_site7843] | 6.61
ATATTCCTACATACAACACACGACGTTCTCATAAGA [CACACA_site231] | 6.74
GGAAAATGAAAAACAAAAAAAAAAAAAAAAAAATGA [TGCATGCA_negctrl_site432] | 6.01
TCTTTTTAGATATATACACACCGTGTCTACCTATAC [CACACA_site7551] | 6.38
ACATCTGTTATTTGTGGTACTAAAAAAATATATAGT [XGTACX_site8322] | 6.48
AAATATATCATACAAAGTACTTGGAATTAATATATA [XGTACX_site8907] | 6.3
AATATAATATAATGCACACATAAAACAAAAAAAAAA [CACACA_site3012] | 10.2
TAATTTTTCCAACTTTGTACAGATATATTAATAAAA [XGTACX_site7856] | 6.22

Sequence | gcPBM binding intensity (ln)
GTTGATACATGAAGCTGTACATAATATTTGTCATTT [XGTACX_site8628] | 6.42
TCTTTTAAATAACAACATAAATAAATAAATAAATAA [GTGCAC_negctrl_site319] | 6.68
GTCATATTAATATGTACACACATATTTATATTTATA [CACACA_site6798] | 6.62
TAAATTAATAAACAAGTGCATATATATATATATATA | 9.73
TTTTTACTATTTATATGACTAAAAATATATTGAATA [CACACA_negctrl_site188] | 6.07
CAATTTATTTTTATTACACACTATCCAAGTAATTTC [CACACA_site7402] | 6.54
TTTTATGTAACATCACGTACTTATATTTAAGTATTC [XGTACX_site7459] | 6.59
CAAGCACACGGACACACACACACACGCGCACGCACA [CACACA_site6307] | 7.28
TATATGTATAGAAAATGTACATATAAATATATATAT [XGTACX_site3420] | 7.94
TAAAATTAATTTCTGTTGCACTTATTATTAATTAAC | 7.97
TTTTTTTTTTTTTGCACACACCATATTTATAGAAAT [CACACA_site5772] | 9.04
ATATTATACCCGTGTACACATTATAACCATATATAA [CACACA_site5933] | 7.27
AAATTTTTTATGAACACACAAATACACGCACTCAAA [CACACA_site7286] | 7.29
TAAAATATATAAAACTGTACATTTTAAAGGCACAAC [XGTACX_site8342] | 7.1
AATAATAAAATAAAGGCATGCACAATATGCTATAAA [TGCATGCA_site645] | 7.96
TATGTATCAAATAAATGTACATATATATATATATAT [XGTACX_site2189] | 9.5
AATTAAAATAGTAATACACACTTCATAGGAAATGAT [CACACA_site5045] | 6.24
TATAGCAAAAAATTTACACACATGTTTTTTCTATAC [CACACA_site325] | 6.74
GGCATTTTATGAAGTAGTACCATAAATATTAAAGAT [XGTACX_site5287] | 6.65

Sequence | gcPBM binding intensity (ln)
CCTTTATTTTATATGTGTACTAAATTGTATATATAT [XGTACX_site8717] | 6.92
ATGTTTTATAAAAGGCGTACACATATGCTTAAGTAA [XGTACX_site6232] | 7.24
CTGAAGGAAAAAGAAAGTACTTTTTTTTTTTTGAAG [XGTACX_site5973] | 5.91
AAAAAAAAAATATCATGTACAAATATAATAAAATTT [XGTACX_site3896] | 6.27
TATTAAAAAGAGGTGACACACACATATAAATCTAAA [CACACA_site9243] | 6.44
TTAAAAAAATTAATATGTACATATATTTATATATAT [XGTACX_site5317] | 6.54
TATATATTTTATTTATGTACGAAAATAAATTAAATT [XGTACX_site3628] | 6.07
AACCACATACCTATAACACACATATACAATATAGAT [CACACA_site7023] | 6.98
ACATCATAGAAAAATTGATATATATATATATATATA [CACACA_negctrl_site130] | 9.48
TCCACAAAGCATGTAACACACAACATATAAGACATA [CACACA_site972] | 7.09
TGTTGGCAGGTGAATGCATGCATATAAGTCTATCTG [TGCATGCA_site781] | 7.14
TTCAATGCATGTCCATGTACATATAAAAAAAAATAC [XGTACX_site1597] | 6.93
TTATTAAAACAAAATGTACACACATATAATTTAATG [CACACA_site8193] | 6.19
TTTTTCTTTCTTTCTTTTTTAATATTACAAATGTAT [XGTACX_negctrl_site267] | 6.7
AAAGTAGAATATCCCCTACACACCCAAATAATTTAC [CACACA_site1255] | 7.32
AATATTTTAATGCACACACACAAAAAAAAAAAAAAA [CACACA_site7374] | 10.7
AATCCTTTACGACACACACACAAAAAAAAAAAAAAA [CACACA_site6449] | 6.39
TTTTTTATTGTGAAACTGATATTATATTTTTTATAA [GTGCAC_negctrl_site559] | 6.07
TAAACATTTTTAATTTTGTAAAATTTTAAATAAAAA [XGTACX_negctrl_site612] | 6.16

Reference: the supplement of paper PMC11417369
